# Read counts are not given, so values of variants with three or more changes are uncertain.
# B1: CPEB3 Ribozyme (parent)
# chain: UAACAGGGGGCCACAGCAGAAGCGUUCACGUCGCAGCCCCUGUCAGAUUCUGGUGAAUCUGCGAAUUCUGCUGUAUAUCUC
# Variants of: B1
# Test: self-cleavage, relative activity (ratio to wild type); higher = more cleavage; in vitro, sequencing
# Method in brief: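 For each CPEB3 ribozyme variant, relative activity is its cleaved/total read fraction divided by the unmutated ribozyme's. Barcoded error-prone PCR libraries were transcribed by T7 RNA polymerase (5 hours, 37°C) and held in DNase I for 15 min before an EDTA stop, with cleavage occurring throughout. Template-switching reverse transcription and Illumina sequencing were used to read the RNAs. A 5-read minimum applied, and results are the mean of three batches.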
row,Variant,self-cleavage
1,UAACUGGGGGCCACAGCGGAAGCGUUCGCGUCGCAGCCCCUGUCAGAUUCUGGUGAAUCUGCGAAUUCUGCUGUAUAUCUC [A5U A18G A28G],0.86
2,UAACUGGGGGCCCCAGCAGAGGCGUUCACGUCGCAGCCCCUGUCAGAUUCUGGUGGAUCUGCGAAUUCUGCUGUAUAUCCC [A5U A13C A21G A56G U80C],0.74
3,UAACUGGGGGCCACGGCAGAAGCGUUCAUGUCGCAGCCCCUGUCAGAUUCUGGUGAAUCUGCGAACUCUGCUGUAUAUCUC [A5U A15G C29U U66C],0.27
4,UAACGGGGGGCCACAGCAGAAGCGUUCACGUCGCAGCCCCUGUCAGAUUCUGGUGAAACUGCGAAUUCUGCUGUAAAUCUC [A5G U58A U76A],0.55
5,UAACUGGGGGCCACAGCGGAAGCGUCCACGUCGCAGCCCCUGUCAGAUUCUGGUGAAUCUGCGAAUUCUGCUGUACAUCUC [A5U A18G U26C U76C],0.33
6,UAACGGGGGGCCACAGCAGAAGCGUUCACGUCGCAGCCCCUGUCAGAUUCUGGCGAAUCUGCGAGUUCUGCUGUUCAUCUC [A5G U54C A65G A75U U76C],0.21
7,UAACUGGGGGCCGCAGCAGAAGCGUUCACGUCGCAGACCCUGUCAGAUUCUGGUGAAUCUGCGAAUUCUGCUGUAUAUCUC [A5U A13G C37A],0.42
8,UAACGGGGGGCCACAGCAGAAGCGUUCACGUCGCAGCCCCUGUCAGAUUCAGGUGAAUCUGCGAAUUCUGCUGUAUACCUC [A5G U51A U78C],0.63
9,UAACGGGGGGCCACAGCAGAAGCGUUCACGUCGCAGCCCCUGUCAGAUUCUGGUGAAUCUGCGAACUCUGCCGUAUAUCUC [A5G U66C U72C],0.27
10,UAACUGGGGGCCACUGCAGAAGCGUUCGCGUCGCAGCCCCUGUCUGAUUCUGGUGAAUCUGUGAGUUCUGCUGUAUAUCUC [A5U A15U A28G A45U C62U A65G],0.12
11,UAACUGGGGGCCACAGCGGAAGCGUGCACGUCACAGCCCCUGUCAGAUUCUGGUGAAUCUGCGAGUUCUGCUGUAUAUCUC [A5U A18G U26G G33A A65G],0.09
12,UAACGGGGGGCCACAGCAGAAGCGUUCACGUCGCAGCCCCUGUCAGAUUCUGGCGAAUCUGCGAAUUCCGCUGUAUAUCUC [A5G U54C U69C],0.45
13,UAACUGGGGGCCACAGCGGAAGCGUUCACGUCGCAGCCCCUGUAAGAUUCUGGUGAAUCUGCGAAUUCUGCUGUAUAUCUC [A5U A18G C44A],0.32
14,UAACUGGGGGCCUCAGCAGAAGCGCUCUCGUCGCAGCCCCUGUCAGAUUCUGGUGAAUCUGCGGAUUCUGCUGUAUAUCUC [A5U A13U U25C A28U A64G],0.3
15,UAACGGGGGGCCACAGCAGAAGCGUUCACGUCGCAGCCCCUGUCAGAUUCUGGUGAAUCCGCGAAUUCCGCUGUAUACCUC [A5G U60C U69C U78C],0.23
16,UAACUGGGGGCCACAGCGGAAGCGCUCACUUCGCAGCCCCUGUCAGGUUCUGGUGAAUCUGCGAAUUCUGCUGUAUAUCUC [A5U A18G U25C G30U A47G],0.09
17,UAACGGGGGGCCACAGCAGAAGCGUUCACGUCGCAGCCCCUGUCAGAUUCUGGUGAAUCUGCGAAUCCUGCUGUAUAACUC [A5G U67C U78A],0.33

row,Variant,self-cleavage
1,UAACUGGGGGCCGCAGCAGAAGCGUUCACGUCGCAGCCCCUGUCAGAUUCUGGUGAGUCUGCGAAUUCUGCUGUAUAUCUC [A5U A13G A57G],0.43
2,UAACUGGGGGCCACGGCAGAAGGGUUCACGUCGCAGCCCCUGUCAGAUUCUGGUGAAUCUGCGAAUUCUGCUGUAUAUCUC [A5U A15G C23G],0.15
3,UAACGGGGGGCCACAGCAGAAGCGUUCACGUCGCAGCCCCUGUCAGAUUCCGGCGAAUCCGCGAAUUCUGCUGUAUAUCUC [A5G U51C U54C U60C],0.13
4,UAACUGGGGGCCACUGCAGAAGCGUUCACGUCGCAGCCCCUGUCAGAUUCUGGUGAAUCUGCGGAUUCUGAUGAAUAUCUC [A5U A15U A64G C71A U74A],0.13
5,UAACUGGGGGCCGCAGCAGAAGCGUUCACGUCGCGGCCCCUGUCAGAUUCUGGUGAAUCUGCGAGUUCUGCUGUAUAUCUC [A5U A13G A35G A65G],0.53
6,UAACUGGGGGCCACGGCAGAAGCGUUCACGUCGCAGCCCCCGUCAGAUUCUGGUGAACCUGCGAAUUCUGCUGUAUGUCUC [A5U A15G U41C U58C A77G],0.1
7,UAACUGGGGGCCACAGCGGAAGCGUUCACGUCGCAGCCCCUGUCAGAUUCUGGUGAAUCCGCGAAUUCUGCUGUAUAUCUC [A5U A18G U60C],0.51
8,UAACGGGGGGCCACAGCAGAAGCGUUCACGUCGCAGCCCCUGUCAGAUUCCGGUGUGUCUGCGAAUUCUGCAGUAUAGCUC [A5G U51C A56U A57G U72A U78G],0.29
9,UAACUGGGGGCCGCAGCAGAAGCGUUCACGUCGCAGCCCCCGUCAGAUUCUGGUGAAUCUGCGAAUUCUGCUGUAUAUCUC [A5U A13G U41C],0.73
10,UAACUGGGGGCCACCGCAGAGGCGUUCCCGUCGCAGCCCCUGUCAGAUUCUGGUGAAUCUGCGAAUUCUGCUGUAUAUCCC [A5U A15C A21G A28C U80C],0.83
11,UAACGGGGGGCCACAGCAGAAGCGUUCACGUCGCAGCCCCUGUCAGAUUCUGGCGAAUCUGCGAAUUCUGGUGUAUAUCUC [A5G U54C C71G],0.19
12,UAACUGGGGGCCGCAGCAGAAGCGAUCACGUCGCAGCCCCUGACAGAUUCUGGUGAAUCUGCGAAUUCUGCUGUAUAUCUC [A5U A13G U25A U43A],0.21
13,UAACUGGGGGCCACAGCGGAAGCGUUCACGUCGCAGCCCCUGUCAGACUCUGGUGAAUCUGCGAAUACUGCUGUAUAUCUC [A5U A18G U48C U67A],0.21
14,UAACUGGGGGCCACAGCGGAAGCGUUCACGUCGCAGCCCCUGUCAGAUUCUGGUGGAUCUGCGAACUCUGCUGUAUAUCUC [A5U A18G A56G U66C],0.19
15,UAACGGGGGGCCACAGCAGAAGCGUUCACGUCGCAGCCCCUGUCAGAUUCCGGUGAGUCUGCGAAUUCUGCUGUUUAUCUC [A5G U51C A57G A75U],0.6
16,UAACGGGGGGCCACAGCAGAAGCGUUCACGUCGCAGCCCCUGUCAGAUUCUGGUGAAUCUGCGAAUUCAGCUGAAUAUCUC [A5G U69A U74A],0.16
17,UAACUGGGGGCCACAGCGGAAGCGUUCACGUCGCAGCCCCUGUCAGAUUCUGGUGAAUCUGCGAAUUCUGCCGUAUAUCUC [A5U A18G U72C],0.69
